Test results: the RNAGym collection of RNA variant scans (doi:10.7554/elife.90254)
Read counts are not given, so values of variants with three or more changes are uncertain.

B1: OR4K15 (parent)
chain: GUUAACGGUCAUAGGCCAUGGAAACUAGGAGCACCAUUUCGCUGCCAGUGAAGAAAUGAACAAAGAAAAUCUGGGCCAGGCAGGCAUCAAAAGAAAUAGUCUUGCGCUCAACCAGAAAGUCUGUAAUCAUUUUAAGGGUA

Variants of: B1
Experiment: self-cleavage, relative activity (ratio to wild type); higher = more cleavage; in vitro, sequencing; the parent is a self-cleaving ribozyme
Variant C16A U57C A92G has a self-cleavage of 0.76. With A18G A60G A86G A91G A110C the self-cleavage was 0.17. Variant A18C A51G U70C U108C C128U has a self-cleavage of 0.03. Variant A18G A60U U97A has a self-cleavage of 2.18. Work on G14A A47G A60G yielded a self-cleavage of 0.7. Variant A13U A90G C101U A111U has a self-cleavage of 0.04. Work on G14A A60G U70C yielded a self-cleavage of 0.23. Variant A13U U43C A67G A82G has a self-cleavage of 0.49. For A13G A60G U103C G106A, the self-cleavage was 0. With G15A A67U G75A U102C A140U the self-cleavage was 0.04. A13G A18U G137A gave a self-cleavage of 0.77. Work on A13G A82U A94U U132A yielded a self-cleavage of 0.28. In the case of A13G A33G A52C A56U A78U U87C, the self-cleavage is reported as 0.27. In the case of A18G A51G A117U U127C, the self-cleavage is reported as 0.7. A18G A23G G136C showed a self-cleavage of 1. A18G A51G U139C gave a self-cleavage of 0.33. In the case of G14A A63G U70G A91G A92G U103C A129C, the self-cleavage is reported as 0.22. Variant A13G U37C A110G has a self-cleavage of 0.21. With A13G U38C A116G A140U the self-cleavage was 0.61. C16U A91G A95G A140C gave a self-cleavage of 2.78. In the case of U12G A33G A63G U131C G136C, the self-cleavage is reported as 1.14. In the case of A13U A117G U124C, the self-cleavage is reported as 1.18. A13U U39C A63G C105U showed a self-cleavage of 0.49. In the case of C17A A62G A86G, the self-cleavage is reported as 1.36. With A18G A24C A30G A125G the self-cleavage was 0.33. For A13G A52G A90G, the self-cleavage was 0.24. Variant G15A A66G A82G U108C has a self-cleavage of 0. With A18C A52G U70C A95G U103A the self-cleavage was 0.1. Work on G15A U120A U122A yielded a self-cleavage of 1.02. Variant A18C A51G A62G A118G has a self-cleavage of 0.42. Variant A18G A36G U70C has a self-cleavage of 0.64. With G15A A27G U100C G104C A111G U122C the self-cleavage was 0. In the case of A13G A117G A140U, the self-cleavage is reported as 1.38. A18G A55G A63G A89G gave a self-cleavage of 1.22. With A13G U19A A54G A67G the self-cleavage was 0.32. For A18G A59G U102C C105U A111G U122C, the self-cleavage was 0.01. For A18G A24G A47C C101U U139A, the self-cleavage was 0.79. Work on A18G A56G U87C A118G yielded a self-cleavage of 0.59. A13U C107U A117G U131C showed a self-cleavage of 0.01. With A13G A55G A60G the self-cleavage was 0.89. Variant A13G A30G U38C A67G A98G has a self-cleavage of 1.06. With A13U A23G A24G A78G A117G the self-cleavage was 0.33. For C17U U103C U124C, the self-cleavage was 0.34. Variant A13G A91G U108C U130C has a self-cleavage of 0.02. Work on A18G A36U A69G A116G yielded a self-cleavage of 0.23. A13G U39C U43C showed a self-cleavage of 1.66. For A13G A18G A47G A78G A94U, the self-cleavage was 0.48. A13G A27G G28U G75C gave a self-cleavage of 0.23. Variant A13G U38C A95U A111G has a self-cleavage of 0.09. G14A A59C A62G gave a self-cleavage of 0.49. G14A U38C A90G A96G gave a self-cleavage of 0.9. Variant A13C A90G A94G has a self-cleavage of 1.42. A18G A62C A68G gave a self-cleavage of 1.29. A13C A62G A82U gave a self-cleavage of 0.37. For A13U A64G A86G U122C, the self-cleavage was 1.44. C17U A36G U39G A59G G74C G79A showed a self-cleavage of 0.37. For A13U A36G U131C, the self-cleavage was 0.88. Work on A13G U39A A55G A59U A90U yielded a self-cleavage of 0.21. Variant G14A A18G A47C A55G has a self-cleavage of 1.23. Work on G14A A59U C61A U70C A90G yielded a self-cleavage of 0.09. Work on G15A A52G A68G U122C A140G yielded a self-cleavage of 0.79. Work on A13U A18G A27G yielded a self-cleavage of 0.88. Variant A13G U37C A51G has a self-cleavage of 1.09. A18G A55G A92G A116G A126G showed a self-cleavage of 1.09. Work on A18G A36G A69G U72G A94G yielded a self-cleavage of 0.15. With A18G A52G A66G A126G the self-cleavage was 1.14. C16U U38C U72A A135G showed a self-cleavage of 0.58. Work on A13U A36U U39A A110U yielded a self-cleavage of 0.86. For A13U U37C A68G A96G, the self-cleavage was 1.38. A18G A27G A78G gave a self-cleavage of 0.22. For A13U A18G A110G, the self-cleavage was 0.25. With C17U A86G A95G the self-cleavage was 1.27. Work on A13G A24G A56G A126G yielded a self-cleavage of 0.5. Work on A13U A30G U103G yielded a self-cleavage of 0.08. A13U G20A U37A A55G U97A A126G U131C showed a self-cleavage of 1.12. Work on A13U A22G U38C yielded a self-cleavage of 0.52. For G15C A23G U70A U108A, the self-cleavage was 0.08. A13U U57A A68U gave a self-cleavage of 2.25. A18G A55G U87A gave a self-cleavage of 0.2. Variant A18G A30G A78U A94G A126G has a self-cleavage of 0.4. Work on C17A A23G U57C yielded a self-cleavage of 0.7. In the case of G15C A59G U108C A134G U139G, the self-cleavage is reported as 0.01. Work on G14A A64U A68G yielded a self-cleavage of 1.26. For A13C G79C U100C U120C, the self-cleavage was 0.21.
